Assay results: PubChem BioAssay AID1347165 (National Center for Advancing Translational Sciences (NCATS), 2019)
Where “and” joins values, the source holds several entries; their conditions need not be identical. Equal entries are not always repeated. In all, about 220,000 compounds went through this assay and about 5,700 (2.6%) were called active. Inconclusive results, whose numbers are uncertain, are shown with a selection of clear calls. Calls follow the shape of the dose curve; as a rule, active = well fitted inhibition curve with a large enough effect; inconclusive = small, poorly fitted or top-dose-only effect; inactive = no such curve, though single readings can be large or run the other way. Potencies beside an inconclusive call are fits to weak or partial responses and may not hold up.

biological target: Lysine-specific demethylase 5B (Homo sapiens) (UniProt Q9UGL1); experiment: Primary screen for KDM5B Histone Demethylases FDH-coupled qHTS; conditions: FDH-coupled NADH fluorescence (FDH is formaldehyde dehydrogenase); activity change, negative = inhibition: at 57.7 µM (top of the series) unless noted; also: nearly all actives have a fitted effect of over 70% in size; as to activity change, negative = inhibition: 0% is about no effect
Procedure, shortened: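 Here, H3K4me3 peptide (12.5 µM in substrate mix) is demethylated by KDM5BΔAP, 200 nM final, after 10 min compound exposure. Formaldehyde product is coupled through FDH (0.25 U/mL in mix) to NADH fluorescence; 30-min ΔRFU feeds dose-response curves.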
Potency is read from the fitted curve at half-maximal effect; tags tell the direction and shape of the fitted curve.

Sequence of UniProt Q9UGL1 (Q9UGL1 whole entry, looked up): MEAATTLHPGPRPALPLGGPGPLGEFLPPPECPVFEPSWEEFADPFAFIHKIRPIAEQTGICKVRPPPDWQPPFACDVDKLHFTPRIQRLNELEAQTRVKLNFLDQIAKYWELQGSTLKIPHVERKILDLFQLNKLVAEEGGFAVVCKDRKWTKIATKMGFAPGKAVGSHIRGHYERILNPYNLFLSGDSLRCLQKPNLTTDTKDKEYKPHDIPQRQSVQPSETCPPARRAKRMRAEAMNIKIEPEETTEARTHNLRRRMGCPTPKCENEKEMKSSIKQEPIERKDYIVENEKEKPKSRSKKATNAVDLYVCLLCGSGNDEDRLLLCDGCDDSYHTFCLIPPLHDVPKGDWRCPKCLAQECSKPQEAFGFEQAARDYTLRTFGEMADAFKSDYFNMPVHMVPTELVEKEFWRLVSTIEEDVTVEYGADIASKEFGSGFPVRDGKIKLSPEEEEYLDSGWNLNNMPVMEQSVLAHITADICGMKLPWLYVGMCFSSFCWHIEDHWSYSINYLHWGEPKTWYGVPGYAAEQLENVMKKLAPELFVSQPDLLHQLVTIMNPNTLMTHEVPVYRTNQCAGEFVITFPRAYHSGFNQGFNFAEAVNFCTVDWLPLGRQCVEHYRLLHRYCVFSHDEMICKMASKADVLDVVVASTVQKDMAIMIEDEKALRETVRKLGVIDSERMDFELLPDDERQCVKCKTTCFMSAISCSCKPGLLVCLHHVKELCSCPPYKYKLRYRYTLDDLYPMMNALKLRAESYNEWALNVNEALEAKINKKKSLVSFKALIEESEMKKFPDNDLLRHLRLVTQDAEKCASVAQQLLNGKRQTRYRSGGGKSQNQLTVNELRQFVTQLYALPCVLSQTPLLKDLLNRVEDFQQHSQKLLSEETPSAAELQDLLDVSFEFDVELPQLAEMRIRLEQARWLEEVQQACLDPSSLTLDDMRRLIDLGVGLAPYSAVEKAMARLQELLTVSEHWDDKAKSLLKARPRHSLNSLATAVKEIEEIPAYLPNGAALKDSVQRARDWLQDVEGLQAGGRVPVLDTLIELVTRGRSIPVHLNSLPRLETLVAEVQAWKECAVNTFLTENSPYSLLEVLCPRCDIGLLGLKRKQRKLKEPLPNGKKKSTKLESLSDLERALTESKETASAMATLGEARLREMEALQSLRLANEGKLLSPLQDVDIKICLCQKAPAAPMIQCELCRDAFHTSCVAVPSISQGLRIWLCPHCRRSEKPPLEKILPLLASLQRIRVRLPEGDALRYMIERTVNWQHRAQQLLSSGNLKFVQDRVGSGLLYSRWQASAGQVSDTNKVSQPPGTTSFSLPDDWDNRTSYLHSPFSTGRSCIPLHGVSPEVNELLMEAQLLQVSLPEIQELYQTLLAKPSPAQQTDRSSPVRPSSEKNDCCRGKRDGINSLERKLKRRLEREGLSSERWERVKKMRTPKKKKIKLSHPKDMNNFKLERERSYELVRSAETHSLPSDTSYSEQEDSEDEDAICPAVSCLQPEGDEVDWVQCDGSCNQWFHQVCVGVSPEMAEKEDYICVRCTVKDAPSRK

Structure (SMILES) | Potency | activity change, negative = inhibition
CCOc1ccc(CNC(=O)c2cc3c(s2)-c2ccccc2OC3)cc1 | inconclusive: 31.6 µM [inhibitor, partial curve, poor fit] | 
CCc1ccc(S(=O)(=O)NCc2nc3cccnc3n2Cc2ccccc2Cl)cc1 | inconclusive: 0.891 µM [inhibitor, partial curve, poor fit] | 
CCCOc1ccc(CNC(=O)Cn2cc3c(n2)-c2c(oc(C(=O)N4CCOCC4)c2C)CC3)cc1 | inconclusive: 31.6 µM [inhibitor, partial curve, poor fit] | 
CCc1ccc2oc(-c3cccc(NC(=O)C(C)(C)Oc4ccc(Br)cc4)c3)nc2c1 | inconclusive: 17.8 µM [inhibitor, partial curve, poor fit] | 
CC(Oc1ccc2ccc(=O)oc2c1)C(=O)N(C(C)C)C(C)C (stereo unspecified) | inconclusive: 22.4 µM [inhibitor, partial curve, poor fit] | 
Cc1cc(C)cc(Nc2ncnc3onc(-c4ccc(F)cc4)c23)c1 | inconclusive: 39.8 µM [inhibitor, single point] | 
Cc1ccc(Nc2c(-c3ccc(C)cc3)nc3ccc(C)cn23)cc1 | inconclusive: 31.6 µM [inhibitor, partial curve, poor fit] | 
Cc1ccc(CN2C(=O)[C@@H]3C[C@@H](O)CN3C3(CN(Cc4cccs4)C3)C2=O)o1 | inconclusive: 39.8 µM [inhibitor, partial curve, poor fit] | 
N#Cc1ccccc1COC(=O)c1ccccc1NCCO | inconclusive: 22.4 µM [inhibitor, partial curve, poor fit] | 
COc1ccc(Br)cc1Cn1nnc(C(=O)Nc2cc(C)ccc2OC)c1N | inconclusive: 39.8 µM [inhibitor, single point] | 
CCOc1ccc(-n2cc(-c3ccccc3)c3c(N4CCC(C)CC4)ncnc32)cc1 | inconclusive: 31.6 µM [inhibitor, partial curve, poor fit] | 
O=c1oc2ccc(Cl)cc2nc1/C=C(\O)c1ccco1 | inconclusive: 31.6 µM [inhibitor, partial curve, poor fit] | 
Cc1cc2[nH]c(C(=O)O)cc2c2ccccc12 | inconclusive: 28.2 µM [inhibitor, partial curve, poor fit] | 
Cc1ccc(-c2cc(C(F)F)n3ncc(C(=O)N4CCCCC4c4cccnc4)c3n2)cc1 (stereo unspecified) | inconclusive: 25.1 µM [inhibitor, partial curve, poor fit] | 
COc1cccc(Nc2csc(CN3CCCC(C)(NC(C)=O)C3)c2)c1 (stereo unspecified) | inconclusive: 12.6 µM [inhibitor, partial curve, poor fit] | 
O=C(CSc1nnc(-c2ccncc2)n1Cc1ccccc1)Nc1ccccc1C(=O)NC1CC1 |  | inactive: -16.5%
O=C(CN1C(=O)NC2(CCS(=O)(=O)CC2)C1=O)Nc1cc(F)cc(F)c1 | inconclusive: 7.08 µM [inhibitor, single point] | 
CN1C(=O)c2cncnc2OCC1CNC(=O)c1ccc(Cl)cc1 (stereo unspecified) | inconclusive: 22.4 µM [inhibitor, partial curve] | 
CCOC(=O)c1ccc(N2C(=O)c3n[nH]c(-c4cccs4)c3C2c2cccc(OC)c2)cc1 (stereo unspecified) | inconclusive: 17.8 µM [inhibitor, partial curve, poor fit] | 
COc1ccc(-c2nc(C#N)c(NCC(c3cccs3)N3CCOCC3)o2)cc1 (stereo unspecified) | inconclusive: 20 µM [inhibitor, partial curve, poor fit] | 
O=C1CC2CCN(Cc3nc4ccccc4s3)CC2CCN1 (stereo unspecified) |  | inactive: 3.14% [at 149 µM]

Structure (SMILES) | Potency | activity change, negative = inhibition
Cc1oc2c(c1C(=O)NCc1cccnc1)CN(Cc1ccc(F)cc1)CC2 |  | inactive: -9.07%
COc1ccc(S(=O)(=O)NCC2CCC(C(=O)N[C@@H](C)C(=O)NCc3ccco3)CC2)cc1 (stereo partly specified) |  | inactive: 6.54%
CCCCc1cc(=O)oc2c(C)c(OCC(=O)NCCN(C)C)ccc12 | inconclusive: 25.1 µM [inhibitor, partial curve, poor fit] | 
COc1ccc2[nH]c(=O)c(CN(C(=O)c3cccnc3)c3cccc(C)c3)cc2c1 | inconclusive: 39.8 µM [inhibitor, single point] | 
COc1cccc(-n2c(-c3ccco3)nc3c(cnn3-c3ccc(Cl)cc3)c2=O)c1 | inconclusive: 39.8 µM [inhibitor, single point] and inconclusive: 35.5 µM [inhibitor, single point] | 
CCn1c(C)c(C)c2cc(C(=O)N3CCN(c4cccc(C)c4C)CC3)ccc21 | inconclusive: 25.1 µM [inhibitor, partial curve, poor fit] | 
Cc1ccc2c(CSc3ncn[nH]3)cc(=O)oc2c1C |  | inactive: -27.1%
CCN1c2cc(C(=O)NC3CCCCC3)ccc2C(=O)N2CCCCC21 (stereo unspecified) | inconclusive: 20 µM [inhibitor, partial curve, poor fit] | 
CCOC(=O)N1CCN(c2cc(C(=O)O)c3cc(NC(=O)C4CC4)ccc3n2)CC1 | inconclusive: 25.1 µM [inhibitor, partial curve, poor fit] | 
O=C(NCc1ccc(Cl)cc1)c1ccc2c(c1)NC(=O)C(CS(=O)(=O)Cc1ccccc1Cl)N2 (stereo unspecified) | inconclusive: 25.1 µM [inhibitor, partial curve, poor fit] | 
CCn1c(=O)c2cc(C(=O)NCCCN(C)Cc3ccccc3)sc2c2ccccc21 | inconclusive: 25.1 µM [inhibitor, partial curve, poor fit] | 
CS(=O)(=O)NN1C(=O)c2ccccc2NC1c1ccco1 (stereo unspecified) | inconclusive: 28.2 µM [inhibitor, partial curve, poor fit] | 
O=C(O)CCn1cnc2onc(-c3ccccc3Cl)c2c1=O | inconclusive: 2.51 µM [inhibitor, partial curve, poor fit] | 
O=C(Nc1cccnc1)[C@@H]1C[C@@H](c2ccc(F)cc2)N(CCOc2ccccc2)C1 |  | inactive: -25.6% [at 86.2 µM]
Cc1ccc(C(=O)N2CCCC3(C2)Nc2cccnc2NC3=NC2CCCC2)cc1F (stereo unspecified) | active: 28.2 µM | 
Cc1ccc(-n2nnnc2CNC(=O)c2ccccc2F)cc1C |  | inactive: 2.36%
CCC(C)NC(=O)c1ccc(-c2nnc3ccc(NC(=O)C4CC4)cn23)cc1 (stereo unspecified) | inconclusive: 3.55 µM [inhibitor, partial curve, poor fit] | 
COc1ccc2[nH]c(C(=O)N3CCN(Cc4ccccc4)CC3)cc2c1OC | inconclusive: 31.6 µM [inhibitor, single point] | 
N#Cc1cccc(NC(=O)c2nn(-c3ccccc3)c(=O)c3ccccc23)c1 | inconclusive: 39.8 µM [inhibitor, single point] | 
CCCOc1ccc(NC(=O)COc2ccc(C)cc2)c2cccnc12 | inconclusive: 39.8 µM [inhibitor, single point] | 
O=C(CN1CCCCCCC1)N1CCn2nc(Cc3ccccc3)cc2C1 | inconclusive: 25.1 µM [inhibitor, single point] | 

Structure (SMILES) | Potency | activity change, negative = inhibition
COCc1nnc2n1CCC(NC(=O)c1n[nH]c3ccccc13)CC2 (stereo unspecified) | active: 28.2 µM | 
CC1=C(c2ccc(Cl)cc2)S(=O)(=O)N=C1N1CCN(c2cccc(C(F)(F)F)c2)CC1 |  | inconclusive: -34.3% [inhibitor]
CCCCNC(=O)CC(c1cccc(OC)c1OC)c1c[nH]c2ccccc12 (stereo unspecified) | inconclusive: 39.8 µM [inhibitor, single point] | 
CCOC(=O)c1sc2ccccc2c1S(=O)(=O)NCc1ccc(F)cc1 | inconclusive: 31.6 µM [inhibitor, single point] | 
Cn1c(=O)c2c(-c3ccccc3)n3c(c2n(C)c1=O)C(c1cccc(Cl)c1)OCC3(C)C (stereo unspecified) |  | inactive: -19.8%
CC(C)=NNC(=O)CCC(=O)NN=C(C)C | inconclusive: 39.8 µM [inhibitor, single point] | 
CC(=O)c1ccc(N2CCN(CCS(=O)(=O)c3ccc(Br)cc3)CC2)cc1 |  | inactive: -23.4%
COc1cc(SC)ccc1C(=O)Nc1nc2ccccc2[nH]1 | inconclusive: 10 µM [inhibitor, partial curve, poor fit] | 
COc1ccccc1CNC(=O)CCC1N=C2c3ccccc3N=C(SCc3ccccc3Cl)N2C1=O (stereo unspecified) | inconclusive: 35.5 µM [inhibitor, single point] | 
O=C(Cn1ccn2nc(-c3ccc(F)cc3)c(CO)c2c1=O)N1CCC(Cc2ccccc2)CC1 | inconclusive: 28.2 µM [inhibitor, single point] | 
COCc1nnc(NC(=O)C2c3ccccc3C(=O)N(C3CCCC3)C23CCCC3)s1 (stereo unspecified) |  | inactive: -17.5%
c1ccc2oc(-c3ccnc4nc(C5CCC5)nn34)cc2c1 | active: 11.2 µM | 
Cc1cccc(NC(=O)CSc2nc3ccccc3c(=O)n2CCn2cc(Cl)cn2)c1C |  | inactive: 15.5%
Cc1oc2cc(OC(=O)c3ccccc3)ccc2c(=O)c1-c1ccccc1 |  | inactive: 6.61%
COc1ccc(NC(=O)CSc2nc(O)c(C/C=C/c3ccccc3)c(=O)[nH]2)cc1 | inconclusive: 2.82 µM [inhibitor, full curve, poor fit] | 
Cc1ccc(CNC(=O)C2CCCN(c3nnc(-n4c(C)ccc4C)s3)C2)cc1 (stereo unspecified) | inconclusive: 2.51 µM [inhibitor, partial curve, poor fit] | 
CCc1ccc(NC(=O)Cn2c(=O)oc3cc(S(=O)(=O)NCc4ccccc4)ccc32)cc1 | inconclusive: 15.8 µM [inhibitor, partial curve, poor fit] | 
COc1ccc(CN2CCN(Cc3ccccc3F)CC2)c(OC)c1 | inconclusive: 8.91 µM [inhibitor, full curve, poor fit] | 
COc1ccc(-c2ccc3nnc(CNC(=O)COc4cccc(C)c4)n3n2)cc1 | active: 25.1 µM | 
